B1: GPR68, Q15743 (parent)
chain: MGNITADNSSMSCTIDHTIHQTLAPVVYVTVLVVGFPANCLSLYFGYLQIKARNELGVYLCNLTVADLFYICSLPFWLQYVLQHDNWSHGDLSCQVCGILLYENIYISVGFLCCISVDRYLAVAHPFRFHQFRTLKAAVGVSVVIWAKELLTSIYFLMHEEVIEDENQHRVCFEHYPIQAWQRAINYYRFLVGFLFPICLLLASYQGILRAVRRSHGTQKSRKDQIQRLVLSTVVIFLACFLPYHVLLLVRSVWEASCDFAKGVFNAYHFSLLLTSFNCVADPVLYCFVSETTHRDLARLRGACLAFLTCSRTGRAREAYPLGAPEASGKSGAQGEEPELLTKLHPAFQTPNSPGSGGFPTGRLA

Scores with a large standard error are left out. Not listed are two conditions whose scores span a narrow range. Read del as a deletion of the residues named and ins as an insertion between two positions. For some assays here: The concentration of ogerin is not given here.

The variants in data set [1] derive from B1. The experiment in a line: cAMP reporter score (Enrich2 score, wild type = 0); higher = more signal; HEK293T, FACS bins.
In data set [2] the parent is B1. The experiment in a line: surface expression score (Enrich2 score, wild type = 0); higher = more signal; HEK293T, FACS bins.

In the case of L285M, the cAMP reporter score is 0.116 in data set [1] (pH 5.5); -0.117 in data set [1] (pH 6); 0.393 in data set [1] (pH 6, modulator: ogerin); 0.014 in data set [1] (pH 6.5, modulator: ogerin). Also, the surface expression score in data set [2] is -0.074.

Turning to L285V, the cAMP reporter score in data set [1] (pH 5.5) amounted to 0.77; in data set [1] (pH 6, modulator: ogerin), 1.25; in data set [1] (pH 6.5, modulator: ogerin) it was 1.49. Moreover, in data set [2], the surface expression score was -1.04.

With L285D, the cAMP reporter score was -1.64 in data set [1] (pH 5.5); 0.346 in data set [1] (pH 6); -0.964 in data set [1] (pH 6, modulator: ogerin); 0.455 in data set [1] (pH 6.5, modulator: ogerin). Moreover, the surface expression score in data set [2] was -2.95.

L285C: the cAMP reporter score was 0.919 in data set [1] (pH 5.5); 0.946 in data set [1] (pH 6); 0.511 in data set [1] (pH 6, modulator: ogerin); -0.028 in data set [1] (pH 6.5, modulator: ogerin). The surface expression score in data set [2] was -1.44.

For the variant D282_P283del, the cAMP reporter score in data set [1] (pH 5.5) was -1.35; in data set [1] (pH 6), -1.28; in data set [1] (pH 6, modulator: ogerin) it was -1.26; in data set [1] (pH 6.5, modulator: ogerin), -0.538. Besides, the surface expression score in data set [2] is -2.07.

With F277del, the cAMP reporter score was -1.44 in data set [1] (pH 5.5); -0.661 in data set [1] (pH 6); -1.86 in data set [1] (pH 6, modulator: ogerin); -1.37 in data set [1] (pH 6.5, modulator: ogerin). Besides, the surface expression score in data set [2] was -2.37.

Take S276_F277insG: the cAMP reporter score in data set [1] (pH 5.5) was -2.32; in data set [1] (pH 6), 0.834; in data set [1] (pH 6, modulator: ogerin), -3.4; in data set [1] (pH 6.5, modulator: ogerin) it was -0.405.

On to C279_A281del, for which the cAMP reporter score in data set [1] (pH 5.5) was -1.16; in data set [1] (pH 6), -1.34; in data set [1] (pH 6, modulator: ogerin), -1.69; in data set [1] (pH 6.5, modulator: ogerin) it was -1.07. In data set [2], the surface expression score was -2.33.

As for S276_F277del, the cAMP reporter score in data set [1] (pH 5.5) was -1.44; in data set [1] (pH 6) it was -1.43; in data set [1] (pH 6, modulator: ogerin) it was -2.18; in data set [1] (pH 6.5, modulator: ogerin) it was -1.09. In data set [2], the surface expression score is -2.46.

On to F277_C279del, for which the cAMP reporter score is -1.52 in data set [1] (pH 5.5); -1.42 in data set [1] (pH 6); -1.88 in data set [1] (pH 6, modulator: ogerin); -1.53 in data set [1] (pH 6.5, modulator: ogerin). Moreover, in data set [2], the surface expression score was -2.93.

On to V280S, for which the cAMP reporter score in data set [1] (pH 5.5) is -0.935; in data set [1] (pH 6) it was -0.68; in data set [1] (pH 6, modulator: ogerin), -1.59; in data set [1] (pH 6.5, modulator: ogerin), -0.689. The surface expression score in data set [2] was -2.42.

For V280M, the cAMP reporter score is -0.565 in data set [1] (pH 5.5); -1.21 in data set [1] (pH 6); -1.11 in data set [1] (pH 6, modulator: ogerin); -1.3 in data set [1] (pH 6.5, modulator: ogerin). Further, the surface expression score in data set [2] was -0.551.

As to V280D, the cAMP reporter score in data set [1] (pH 5.5) is -1.53; in data set [1] (pH 6) it was -0.774; in data set [1] (pH 6, modulator: ogerin) it was -1.03; in data set [1] (pH 6.5, modulator: ogerin), -1.17. The surface expression score in data set [2] is -1.96.

For V280Q, the cAMP reporter score in data set [1] (pH 5.5) was -1.06; in data set [1] (pH 6), -0.131; in data set [1] (pH 6, modulator: ogerin), -1.5; in data set [1] (pH 6.5, modulator: ogerin), -1.03. The surface expression score in data set [2] is -2.23.

Regarding V280F, the cAMP reporter score in data set [1] (pH 5.5) was -0.727; in data set [1] (pH 6), 0.269; in data set [1] (pH 6, modulator: ogerin) it was -0.222; in data set [1] (pH 6.5, modulator: ogerin) it was 1.38. In addition, in data set [2], the surface expression score is -1.47.

Turning to V280Y, the cAMP reporter score is -0.466 in data set [1] (pH 5.5); -0.094 in data set [1] (pH 6); -1.73 in data set [1] (pH 6, modulator: ogerin); -1.27 in data set [1] (pH 6.5, modulator: ogerin). For the same variant, in data set [2], the surface expression score is -1.78.

As to V280N, the cAMP reporter score in data set [1] (pH 5.5) was -0.271; in data set [1] (pH 6), -1.09; in data set [1] (pH 6, modulator: ogerin) it was -1.56; in data set [1] (pH 6.5, modulator: ogerin), -1.15. The surface expression score in data set [2] was -1.54.

Consider V280A, for which the cAMP reporter score was 0.411 in data set [1] (pH 5.5); 0.067 in data set [1] (pH 6); -0.05 in data set [1] (pH 6, modulator: ogerin); -0.506 in data set [1] (pH 6.5, modulator: ogerin). Further, the surface expression score in data set [2] was -1.26.

On to V280P, for which the cAMP reporter score in data set [1] (pH 5.5) was -1.34; in data set [1] (pH 6) it was -0.568; in data set [1] (pH 6, modulator: ogerin), -1.49; in data set [1] (pH 6.5, modulator: ogerin), -0.87. For the same variant, the surface expression score in data set [2] is -1.97.

In the case of V280K, the cAMP reporter score was -1.01 in data set [1] (pH 5.5); -0.632 in data set [1] (pH 6); -1.78 in data set [1] (pH 6, modulator: ogerin); -1.79 in data set [1] (pH 6.5, modulator: ogerin). For the same variant, in data set [2], the surface expression score was -2.09.

As to V280C, the cAMP reporter score was 0.748 in data set [1] (pH 5.5); -0.131 in data set [1] (pH 6); 0.051 in data set [1] (pH 6, modulator: ogerin); -0.759 in data set [1] (pH 6.5, modulator: ogerin). In data set [2], the surface expression score is -0.036.

For the variant V280E, the cAMP reporter score is -1.65 in data set [1] (pH 5.5); -1.38 in data set [1] (pH 6); -1.71 in data set [1] (pH 6, modulator: ogerin); -1.6 in data set [1] (pH 6.5, modulator: ogerin). In data set [2], the surface expression score was -1.94.

As for V280T, the cAMP reporter score was -1.43 in data set [1] (pH 5.5); -1.18 in data set [1] (pH 6); -1.44 in data set [1] (pH 6, modulator: ogerin); -1.59 in data set [1] (pH 6.5, modulator: ogerin). The surface expression score in data set [2] was -2.14.

Turning to V280W, the cAMP reporter score was -1.74 in data set [1] (pH 5.5); -0.479 in data set [1] (pH 6); -2.04 in data set [1] (pH 6, modulator: ogerin); -1.31 in data set [1] (pH 6.5, modulator: ogerin). Further, the surface expression score in data set [2] was -2.37.

V280H: the cAMP reporter score in data set [1] (pH 5.5) was -0.932; in data set [1] (pH 6), -0.317; in data set [1] (pH 6, modulator: ogerin), -2.15; in data set [1] (pH 6.5, modulator: ogerin) it was -0.735. Also, the surface expression score in data set [2] is -2.15.

For V280G, the cAMP reporter score in data set [1] (pH 5.5) was -1.93; in data set [1] (pH 6), -0.92; in data set [1] (pH 6, modulator: ogerin), -1.37; in data set [1] (pH 6.5, modulator: ogerin), -1.28. The surface expression score in data set [2] is -1.13.

With V280L, the cAMP reporter score is -0.373 in data set [1] (pH 5.5); -0.003 in data set [1] (pH 6); -0.066 in data set [1] (pH 6, modulator: ogerin); -0.796 in data set [1] (pH 6.5, modulator: ogerin). The surface expression score in data set [2] turned out to be 0.861.

For V280R, the cAMP reporter score in data set [1] (pH 5.5) was -0.831; in data set [1] (pH 6, modulator: ogerin), -1.4; in data set [1] (pH 6.5, modulator: ogerin), -0.578. Besides, in data set [2], the surface expression score is -2.76.

Take V280I: the cAMP reporter score is 0.897 in data set [1] (pH 5.5); -0.139 in data set [1] (pH 6); 1.59 in data set [1] (pH 6, modulator: ogerin); 0.917 in data set [1] (pH 6.5, modulator: ogerin). For the same variant, the surface expression score in data set [2] was 1.9.

For A281del, the cAMP reporter score in data set [1] (pH 5.5) is -1.36; in data set [1] (pH 6), -0.825; in data set [1] (pH 6, modulator: ogerin), -1.1; in data set [1] (pH 6.5, modulator: ogerin), -0.975. Also, the surface expression score in data set [2] was -3.3.

With L285del, the cAMP reporter score in data set [1] (pH 5.5) was -1.07; in data set [1] (pH 6, modulator: ogerin), -0.849.

Values taken from the GPR68 mutational scans of Howard et al. (2025).
